Out of some 340,000 compounds screened, about 12,000 (3.5%) were called active. This list was built around the results that the source calls inconclusive (neither active nor inactive); the mix of calls is not that of the screen. Calls follow the shape of the dose curve; as a rule, active = well fitted inhibition curve with a large enough effect; inconclusive = small, poorly fitted or top-dose-only effect, or another doubt; inactive = no such curve, though single readings can be large or run the other way. Potencies of inconclusive entries are left out as doubtful fits.
Test: qHTS Assay for Inhibitors of Hepatitis C Virus (HCV)
Conditions: Huh7.5.1 HCVcc-Cre (HCVcc is cell-culture hepatitis C virus) infection, luciferase reporter, 44 h; series mostly up to 41.8 µM
In short: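 1,000 cells/well; 4 h culture; + compound; + HCVcc-Cre (~0.5 moi); 44 h; luciferase substrate, RT 15 min; read 15 sec.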
Potency is read from the fitted curve at half-maximal effect; tags tell the direction and shape of the fitted curve.

Row | Compound | Potency
1 | O=C(Nc1c2c(nc3ccccc13)CCCC2)c1cccc([N+](=O)[O-])c1 | inconclusive [inhibitor, partial curve]
2 | Cn1cc([N+](=O)[O-])c(C(=O)Nc2cc(Oc3cccnc3)cc([N+](=O)[O-])c2)n1 | inconclusive [inhibitor, single point]
3 | Cc1nc(N2CCN(Cc3ccccc3)CC2)c(C#N)c2c1COC(C)(C)C2 | active: 11.2 µM
4 | CC(=O)NCCC(=O)Nc1cccc(S(=O)(=O)N(C)c2ccccc2)c1 | inactive
5 | COc1ccccc1N1CCN(CCCCOc2cccc3ccccc23)CC1 | inconclusive [inhibitor, single point]
6 | CCn1cc(C(=O)NCCc2ccccc2)c(=O)c2cc(F)c(N3CCN(C)CC3)cc21 | active: 10 µM
7 | O=C(NCc1ccccc1)c1ccc(S(=O)(=O)N2CCCc3ccccc32)cc1 | active: 12.6 µM
8 | CCN(c1ccc(NC(=O)CSc2ccc3c(c2)OCCO3)cc1)C(C)C | inconclusive [inhibitor, single point]
9 | COc1cc2c(c(OC)c1CC=C(C)C)C[C@H](c1ccc(O)cc1O)CO2 | inconclusive [inhibitor, single point]
10 | O=C(Nc1ccc2c(c1)OCO2)c1c(F)c(F)c(F)c(F)c1F | inconclusive [inhibitor, single point]
11 | CC(=O)c1c(O)cc(O)c(C(C)=O)c1O | active: 3.55 µM
12 | Cc1ccc(SCC(=O)Nc2cccc(S(=O)(=O)N3CCOCC3)c2)cc1C | inconclusive [inhibitor, single point]
13 | CCCC(=O)NC(c1ccccc1Cl)c1ccc2cccnc2c1O (stereo not given) | active: 2 µM
14 | COC(=O)c1ccc(NC(=O)Nc2ccc(F)cc2)cc1 | inconclusive [inhibitor, single point]
15 | C=CCN=C(CC)C1=C(O)CCCC1=O | inactive
16 | CCOC(=O)COc1cc2c(C(=O)OCC)c(C)oc2cc1Br | inconclusive [inhibitor, full curve]
17 | COc1ccc2c(c1O)-c1cccc3c1[C@@H](C2)N(C)CC3 | inconclusive [inhibitor, single point]
18 | Cc1ccc2nsnc2c1NC(=O)COc1ccccc1 | inactive
19 | CC(C)NC(=O)NC(=O)CSc1nnc(COc2ccccc2F)n1C(C)C1CC2CCC1C2 (stereo not given) | inconclusive [inhibitor, single point]
20 | Cc1ccc[n+](CC(=O)Nc2c(Cl)cc(Cl)cc2Cl)c1 | inactive
21 | C/C(=C\C(=O)c1ccccc1)NNC(=O)c1ccc(Cl)cc1 | inactive
22 | CN(C)N1C(N)=C(C#N)C(c2cccnc2)C2=C1CCCC2=O (stereo not given) | inactive
23 | COc1ccc(C)cc1S(=O)(=O)N1CCN(S(=O)(=O)c2cc(C)ccc2OC)C(C)C1 (stereo not given) | inconclusive [inhibitor, single point]
24 | Cc1ccc(C(=O)N2CCCC(CCC(=O)N3CCN(c4ccccn4)CC3)C2)cc1C (stereo not given) | inconclusive [inhibitor, single point]
25 | O=C(/C=C/c1ccccc1)N1CCN(Cc2nc3ccccc3c(=O)[nH]2)CC1 | inactive

Row | Compound | Potency
26 | Cc1noc(C)c1COc1ccc(C(=O)N2CC(C)CC(C)C2)cc1 (stereo not given) | inconclusive [inhibitor, partial curve]
27 | O=C(NCc1ccc(F)cc1)c1ccc(S(=O)(=O)Nc2cccc(C(F)(F)F)c2)cc1 | inconclusive [inhibitor, partial curve]
28 | CSc1sc(-c2ccnc(=S)[nH]2)c(-c2ccccc2)c1C#N | inactive
29 | CC(C)(C)c1ccc(OCC(=O)Nc2ccc3c4c(cccc24)C(=O)NC3=O)cc1 | inconclusive [inhibitor, partial curve]
30 | CCOC(=O)N1CCN(Cc2nc(-c3cccs3)no2)CC1 | inactive
31 | CCC(CO)Oc1cc(NC(=O)c2cccc3ccccc23)c2ncn(C(C)C)c2c1 (stereo not given) | inconclusive [inhibitor, partial curve]
32 | COc1cccc(C(=O)COc2ccccc2-c2ccccc2)c1 | inconclusive [inhibitor, single point]
33 | Cc1nc(N2CCOCC2)c2c(C)c(C(=O)Nc3ccccc3Cl)sc2n1 | inconclusive [inhibitor, partial curve]
34 | Cc1nn(-c2ccccc2)c2c1C(O)CC(C)(C)C2 (stereo not given) | inactive
35 | C[C@H](CO)N1C[C@H](C)[C@@H](CN(C)C(=O)Nc2ccccc2)Oc2ccc(NS(=O)(=O)c3cn(C)cn3)cc2C1=O | inactive
36 | O=C(NCc1ccc(F)cc1)c1cc2sccc2n1Cc1ccc(F)cc1 | inconclusive [inhibitor, single point]
37 | CCOC(=O)C(=NC1CCCCC1)NNc1cccc(C(F)(F)F)c1 | inconclusive [inhibitor, partial curve]
38 | NC(=O)c1c(NC(=O)CSc2nc3c(c(C(F)(F)F)n2)CCc2ccccc2-3)sc2c1CCCC2 | inconclusive [inhibitor, partial curve]
39 | COc1ccc(NC(=S)NC(=O)c2csnn2)cc1 | inactive
40 | Cc1cccc2cc(C(c3nnnn3C3CCCC3)N3CCOCC3)c(=O)[nH]c12 (stereo not given) | inactive
41 | CCN1CCN(CCCNC(=O)C2CCCN(c3nc4c(C)cc(C)cc4s3)C2)CC1 (stereo not given) | active: 10 µM
42 | [N-]=[N+]=CC(=O)C(O)(c1ccccc1)C(Cl)c1ccccc1 (stereo not given) | inconclusive [inhibitor, single point]
43 | CC(=O)Nc1cccc(Oc2ncnc3scc(-c4ccc(C(C)C)cc4)c23)c1 | inconclusive [inhibitor, single point]
44 | COc1ccc(C(=O)CC(=O)c2ccc(F)cc2)cc1 | inconclusive [inhibitor, single point]
45 | COc1ccc(-n2ncc3c(NCC(C)C)ncnc32)cc1 | active: 14.1 µM
46 | O=C(NCCc1cccc(Cl)c1)c1ccc(Cl)c([N+](=O)[O-])c1 | inactive
47 | CCn1cc(C(=O)NCc2ccccc2)c2ccccc21 | inconclusive [inhibitor, partial curve]
48 | Cc1cc(=O)n2nc(N3CCCC3C(=O)Nc3ccc(C(C)C)cc3)sc2n1 (stereo not given) | inactive
49 | O=C(CSC1=N/C(=C/c2ccco2)C(=O)N1c1ccc(OC(F)F)cc1)NC1CCS(=O)(=O)C1 (stereo not given) | inactive
50 | COc1cc(CC(=O)OCc2cccc([N+](=O)[O-])c2)cc(OC)c1OC | inconclusive [inhibitor, partial curve, poor fit]

Row | Compound | Potency
51 | COc1ccc(C(CNC(=O)c2cccc(NS(=O)(=O)c3ccc(C)c(F)c3)c2)N2CCOCC2)cc1 (stereo not given) | inactive
52 | CC[n+]1ccccc1/C=C1\Sc2ccc(C)cc2N1C | active: 6.31 µM
53 | CC1CCN(CCC(=O)Nc2ccc(Cl)cc2)CC1 | inconclusive [inhibitor, single point]
54 | COC(=O)c1ccccc1NC(=O)C1CC(c2ccc(F)cc2)=NO1 (stereo not given) | inconclusive [inhibitor, single point]
55 | C/C(=N\Nc1cc(N2CCOCC2)nc(C)n1)c1ccc(F)cc1 | inconclusive [inhibitor, partial curve]
56 | CCC1CCCCN1CCNC(=O)CCS(=O)(=O)c1ccc(Br)cc1 (stereo not given) | inactive
57 | N#Cc1c(NC(=O)COC(=O)c2ccc(O)cc2O)sc2c1CCC2 | active: 7.08 µM
58 | CC(=O)C1(C)OC(N)=C(C#N)C(c2ccccc2)C1(C#N)C#N (stereo not given) | inactive
59 | Cc1nc(C(=O)NCCCO)cc2c1[nH]c1ccccc12 | inconclusive [inhibitor, single point]
60 | CCOC(=O)CSc1nc(C)c2cccc(C)c2n1 | inactive
61 | CC(=O)NC(CC(=O)Nc1nc(-c2ccc(N(C)S(C)(=O)=O)cc2)cs1)c1ccccc1 (stereo not given) | active: 11.2 µM
62 | COc1ccc(NC(=O)/C=C/c2cccc(C(F)(F)F)c2)cn1 | active: 11.2 µM
63 | CC(=O)c1ccc(N2CCN(C(=O)c3noc4c3CSc3ccccc3-4)CC2)cc1 | inactive
64 | O=C(/C=C/c1ccccc1)N(c1ccccn1)C1CCCCC1 | inactive
65 | Cc1cc(C(=O)NC2CCCc3c2cnn3-c2cccc(C)c2C)n(C)n1 (stereo not given) | active: 0.316 µM
66 | CCOC(=O)C(=CNc1cc(C)nn1-c1ccc(Cl)cc1)C(=O)OCC | inconclusive [inhibitor, single point]
67 | CC1CCC(NC(=O)CN2CCC(n3nnc4cc(F)ccc43)CC2)CC1 (stereo not given) | inconclusive [inhibitor, single point]
68 | Cc1cccc(Nc2nn3c(=O)c4ccccc4nc3s2)c1 | inactive
69 | CCCCCn1c(=O)[nH]c2cc(C(=O)NCc3ccco3)ccc2c1=O | inconclusive [inhibitor, single point]
70 | Cc1sc2ncnc(Sc3ccccc3C(=O)Nc3ccccc3Cl)c2c1C | inactive
71 | Cc1ccc(-c2cc(-c3ccc4c(c3)OCO4)c(C#N)c(N)n2)o1 | inconclusive [inhibitor, partial curve]
72 | COc1ccc(NC(=O)C(=O)c2cn(CC(=O)N3CCOCC3)c3ccccc23)cc1OC | inconclusive [inhibitor, partial curve]
73 | CCC(COC(=O)NC)NC(=O)Oc1cccc(C)c1 (stereo not given) | inactive
74 | Cc1ccc(SCCC(=O)N2CCN(S(=O)(=O)c3ccccc3)CC2)cc1 | inconclusive [inhibitor, single point]
75 | COc1cc2c(cc1OC)[C@@H]1C(=O)c3ccc4c(c3O[C@@H]1CO2)C[C@H](C(C)C)O4 | active: 0.316 µM

Source: PubChem BioAssay AID651820 (National Center for Advancing Translational Sciences (NCATS), 2012)
